# In the supplement of paper PMC8728848:
# The list shows a part of the results.
# Experiments:
# Assay in all cases: glycan array binding signal (z-score within array); higher = stronger binding
# Settings in all cases: glycan notation: IUPAC condensed, linker removed
# [1] = molecular target: Neu5Ac(a2-6)Gal(b1-4)GlcNAc(b1-2)Man(a1-3)[GlcNAc(b1-4)][Neu5Ac(a2-6)Gal(b1-4)GlcNAc(b1-2)Man(a1-6)]Man(b1-4)GlcNAc(b1-4)GlcNAc
# Summary of the method: (§1)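 The Consortium for Functional Glycomics database supplied 3228 glycan arrays, of which those lacking an available protein sequence were dropped. The binding signal, a within-array Z-score, was averaged across arrays of the same protein sequence and across linkers. Negative scores can be read as non-binding.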
# [2] = molecular target: Neu5Ac(a2-6)Gal(b1-4)GlcNAc(b1-2)Man(a1-3)[Man(a1-6)]Man(b1-4)GlcNAc(b1-4)GlcNAc
# Summary of the method: as §1
# [3] = molecular target: Neu5Ac(a2-6)Gal(b1-4)GlcNAc(b1-2)Man(a1-3)[Neu5Ac(a2-3)Gal(b1-4)GlcNAc(b1-2)Man(a1-6)]Man(b1-4)GlcNAc(b1-4)GlcNAc
# Summary of the method: as §1
# [4] = molecular target: Neu5Ac(a2-6)Gal(b1-4)GlcNAc(b1-2)Man(a1-3)[Neu5Ac(a2-6)Gal(b1-4)GlcNAc(b1-2)Man(a1-6)]Man(b1-4)GlcNAc(b1-4)GlcNAc
# Summary of the method: as §1
# [5] = molecular target: Neu5Ac(a2-6)Gal(b1-4)GlcNAc(b1-2)Man(a1-3)[Neu5Ac(a2-6)Gal(b1-4)GlcNAc(b1-2)Man(a1-6)]Man(b1-4)GlcNAc(b1-4)[Fuc(a1-6)]GlcNAc
# Summary of the method: as §1
# [6] = molecular target: Neu5Ac(a2-6)Gal(b1-4)GlcNAc(b1-2)Man(a1-6)Man(b1-4)GlcNAc(b1-4)GlcNAc
# Summary of the method: as §1
# [7] = molecular target: Neu5Ac(a2-6)Gal(b1-4)GlcNAc(b1-2)Man(a1-6)[Gal(b1-4)GlcNAc(b1-2)Man(a1-3)]Man(b1-4)GlcNAc(b1-4)GlcNAc
# Summary of the method: as §1
# [8] = molecular target: Neu5Ac(a2-6)Gal(b1-4)GlcNAc(b1-2)Man(a1-6)[GlcNAc(b1-2)Man(a1-3)]Man(b1-4)GlcNAc(b1-4)GlcNAc
# Summary of the method: as §1
# [9] = molecular target: Neu5Ac(a2-6)Gal(b1-4)GlcNAc(b1-2)Man(a1-6)[Man(a1-3)]Man(b1-4)GlcNAc(b1-4)GlcNAc
# Summary of the method: as §1
# [10] = molecular target: Neu5Ac(a2-6)Gal(b1-4)GlcNAc(b1-2)[Neu5Ac(a2-6)Gal(b1-4)GlcNAc(b1-4)]Man(a1-3)[GlcNAc(b1-4)][Neu5Ac(a2-6)Gal(b1-4)GlcNAc(b1-2)[Neu5Ac(a2-6)Gal(b1-4)GlcNAc(b1-6)]Man(a1-6)]Man(b1-4)GlcNAc(b1-4)GlcNAc
# Summary of the method: as §1
# [11] = molecular target: Neu5Ac(a2-6)Gal(b1-4)GlcNAc(b1-2)[Neu5Ac(a2-6)Gal(b1-4)GlcNAc(b1-4)]Man(a1-3)[GlcNAc(b1-4)][Neu5Ac(a2-6)Gal(b1-4)GlcNAc(b1-4)Man(a1-6)]Man(b1-4)GlcNAc(b1-4)GlcNAc
# Summary of the method: as §1
# [12] = molecular target: Neu5Ac(a2-6)Gal(b1-4)GlcNAc(b1-2)[Neu5Ac(a2-6)Gal(b1-4)GlcNAc(b1-6)]Man(a1-6)[Neu5Ac(a2-6)Gal(b1-4)GlcNAc(b1-2)Man(a1-3)][GlcNAc(b1-4)]Man(b1-4)GlcNAc(b1-4)GlcNAc
# Summary of the method: as §1
# [13] = molecular target: Neu5Ac(a2-6)Gal(b1-4)GlcNAc(b1-3)Gal(b1-3)GlcNAc
# Summary of the method: as §1
# [14] = molecular target: Neu5Ac(a2-6)Gal(b1-4)GlcNAc(b1-3)Gal(b1-4)GlcNAc
# Summary of the method: as §1
# [15] = molecular target: Neu5Ac(a2-6)Gal(b1-4)GlcNAc(b1-3)Gal(b1-4)GlcNAc(b1-2)Man(a1-3)[Neu5Ac(a2-6)Gal(b1-4)GlcNAc(b1-3)Gal(b1-4)GlcNAc(b1-2)Man(a1-6)]GalNAc
# Summary of the method: as §1
# [16] = molecular target: Neu5Ac(a2-6)Gal(b1-4)GlcNAc(b1-3)Gal(b1-4)GlcNAc(b1-3)Gal(b1-4)GlcNAc
# Summary of the method: as §1
# [17] = molecular target: Neu5Ac(a2-6)Gal(b1-4)GlcNAc(b1-3)Gal(b1-4)GlcNAc(b1-3)Gal(b1-4)GlcNAc(b1-2)Man(a1-3)[Neu5Ac(a2-6)Gal(b1-4)GlcNAc(b1-3)Gal(b1-4)GlcNAc(b1-3)Gal(b1-4)GlcNAc(b1-2)Man(a1-6)]GalNAc
# Summary of the method: as §1
# [18] = molecular target: Neu5Ac(a2-6)Gal(b1-4)GlcNAc(b1-3)Gal(b1-4)GlcNAc(b1-3)GalNAc
# Summary of the method: as §1
# [19] = molecular target: Neu5Ac(a2-6)Gal(b1-4)GlcNAc(b1-3)Gal(b1-4)GlcNAc(b1-3)[Neu5Ac(a2-6)Gal(b1-4)GlcNAc(b1-3)Gal(b1-4)GlcNAc(b1-6)]GalNAc
# Summary of the method: as §1
# [20] = molecular target: Neu5Ac(a2-6)Gal(b1-4)GlcNAc(b1-3)Gal(b1-4)GlcNAc(b1-6)[Gal(b1-3)]GalNAc
# Summary of the method: as §1
# [21] = molecular target: Neu5Ac(a2-6)Gal(b1-4)GlcNAc(b1-3)Gal(b1-4)[Fuc(a1-3)]GlcNAc(b1-3)Gal(b1-4)[Fuc(a1-3)]GlcNAc
# Summary of the method: as §1
# [22] = molecular target: Neu5Ac(a2-6)Gal(b1-4)GlcNAc(b1-3)GalNAc
# Summary of the method: as §1
# [23] = molecular target: Neu5Ac(a2-6)Gal(b1-4)GlcNAc(b1-3)[Neu5Ac(a2-6)Gal(b1-4)GlcNAc(b1-6)]GalNAc
# Summary of the method: as §1
# [24] = molecular target: Neu5Ac(a2-6)Gal(b1-4)GlcNAc(b1-6)GalNAc
# Summary of the method: as §1
# [25] = molecular target: Neu5Ac(a2-6)Gal(b1-4)GlcNAc(b1-6)[Gal(b1-3)GlcNAc(b1-3)]Gal(b1-4)Glc
# Summary of the method: as §1
# [26] = molecular target: Neu5Ac(a2-6)Gal(b1-4)GlcNAc(b1-6)[Gal(b1-3)]GalNAc
# Summary of the method: as §1
# [27] = molecular target: Neu5Ac(a2-6)Gal(b1-4)GlcNAc6S
# Summary of the method: as §1
# Neu5Ac(a2-6)GalNAc = molecular target: Neu5Ac(a2-6)GalNAc
# Summary of the method: as §1
# [28] = molecular target: Neu5Ac(a2-6)GalNAc(b1-4)GlcNAc
# Summary of the method: as §1
# [29] = molecular target: Neu5Ac(a2-6)GalNAc(b1-4)GlcNAc6S
# Summary of the method: as §1
# [30] = molecular target: Neu5Ac(a2-6)GlcNAc(b1-4)GlcNAc
# Summary of the method: as §1
binder,measurement,setting,value
AFCNVH (Aspergillus fumigatus) (protein) MSLRGFHTTCDTIVLKDKHILSSRCKRPDGTYSFSEIDLNDCLGNNNGKFVWGGESFVDSASQVNLALEGGEGRPMLHAQLNDWHGSVQSASVNLGECIQNEAGGLEYMHC,glycan array binding signal (z-score),[1],-0.066
same,glycan array binding signal (z-score),[2],-0.332
same,glycan array binding signal (z-score),[3],-0.385
same,glycan array binding signal (z-score),[4],0.006
same,glycan array binding signal (z-score),[5],-0.201
same,glycan array binding signal (z-score),[6],-0.343
same,glycan array binding signal (z-score),[7],-0.371
same,glycan array binding signal (z-score),[8],-0.269
same,glycan array binding signal (z-score),[9],-0.287
same,glycan array binding signal (z-score),[10],-0.842
same,glycan array binding signal (z-score),[11],-0.986
same,glycan array binding signal (z-score),[12],-0.483
same,glycan array binding signal (z-score),[13],-0.318
same,glycan array binding signal (z-score),[14],-0.452
same,glycan array binding signal (z-score),[15],-0.303
same,glycan array binding signal (z-score),[16],-0.208
same,glycan array binding signal (z-score),[17],-0.157
same,glycan array binding signal (z-score),[18],-0.684
same,glycan array binding signal (z-score),[19],-0.26
same,glycan array binding signal (z-score),[20],-0.506
same,glycan array binding signal (z-score),[21],-0.063
same,glycan array binding signal (z-score),[22],-0.641
same,glycan array binding signal (z-score),[23],-0.368
same,glycan array binding signal (z-score),[24],-0.366
same,glycan array binding signal (z-score),[25],-0.341
same,glycan array binding signal (z-score),[26],-0.439
same,glycan array binding signal (z-score),[27],-0.494
same,glycan array binding signal (z-score),Neu5Ac(a2-6)GalNAc,-0.551
same,glycan array binding signal (z-score),[28],1.32
same,glycan array binding signal (z-score),[29],0.433
same,glycan array binding signal (z-score),[30],2.45
